Measured values published in the supplement of paper PMC12217912.
This is one part of the list. The full chains were built here from the parent and the listed change. Inactive controls read about 0.05.

B1: TEV protease; numbered along this chain (parent)
chain: MGESLFKGPRDYNPISSSICHLTNESDGHTTSLYGIGFGPFIITNKHLFRRNNGTLVVQSLHGVFKVKDTTTLQQHLVDGRDMIIIRMPKDFPPFPQKLKFREPQREERICLVTTNFQTKSMSSMVSDTSCTFPSGDGIFWKHWIQTKDGQCGSPLVSTRDGFIVGIHSASNFTNTNNYFTSVPKNFMELLTNQEAQQWVSGWRLNADSVLWGGHKVFMVKPEEPFQPVKEATQL

Variants of: B1
Experiment: raw area under fraction-flipped curve 0-4 h after induction (AUC4h, not background-subtracted), DNA-recorder readout of cleavage of the substrate (dimensionless); higher = more cleavage of the substrate by the protease variant
Settings: temperature: 34 °C; time window: 0-4 h after rhamnose induction
Procedure: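 In vivo DNA recorder in E. coli TOP10(DE3) ΔrhaA at 34 °C. Each TEVp single-site mutant (parent TEVp 0) is paired with a single-site variant of the 7-mer TEVs (canonical ENLYFQ|S). The substrate sits between flexible linkers in a Bxb1-sfGFP-TEVs-SsrA fusion, so cleavage stabilises Bxb1 and speeds flipping of a recombination array, read by NGS. The value is the raw area under the fraction-flipped curve over 0-4 h after rhamnose induction (AUC4h), with ≥20 reads per time point. It is not background-subtracted; inactive controls average about 0.047.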
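Further: Bxb1 expression induced with 0.2% (w/v) L-rhamnose at OD600 near 0.5, cultures sampled hourly, flipped fraction per protease–substrate barcode pair counted by paired-end Illumina sequencing.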

| Variant | area with substrate ENLYFAS | area with substrate ENLYFDS | area with substrate ENLYFES | area with substrate ENLYFFS | area with substrate ENLYFHS | area with substrate ENLYFIS | area with substrate ENLYFKS | area with substrate ENLYFLS | area with substrate ENLYFMS | area with substrate ENLYFPS | area with substrate ENLYFRS | area with substrate ENLYFWS | area with substrate ENLYFNS | area with substrate ENLYFTS | area with substrate ENLYFVS | area with substrate ENLYFCS | area with substrate ENLYFGS | area with substrate ENLYFYS | area with substrate ENLYFSS |
| --- | --- | --- | --- | --- | --- | --- | --- | --- | --- | --- | --- | --- | --- | --- | --- | --- | --- | --- | --- |
| MGESLFKGPRDYNPISSSICHLTNESDGHTTSLYGIGFGPFIITNKHLFRRNNGTLVVQSLHGVFKVKDTTTLQQHLVDGRDMIIIRMPKDFPPFPQKLKFREPQREERICLVTTNFQTESMSSMVSDTSCTFPSGDGIFWKHWIQTKDGQCGSPLVSTRDGFIVGIHSASNFTNTNNYFTSVPKNFMELLTNQEAQQWVSGWRLNADSVLWGGHKVFMVKPEEPFQPVKEATQL [K120E] | 0.0564 | 0.0503 | 0.0632 | 0.0682 | 0.064 | 0.0584 | 0.0517 | 0.0414 | 0.0689 | 0.0525 | 0.0626 | 0.0337 | – | – | – | – | – | – | – |
| MGESLFKGPRDYNPISSSICHLTNESDGHTTSLYGIGFGPFIITNKHLFRRNNGTLVVQSLHGVFKVKDTTTLQQHLVDGRDMIIIRMPKDFPPFPQKLKFREPQREERICLVTTNFQTASMSSMVSDTSCTFPSGDGIFWKHWIQTKDGQCGSPLVSTRDGFIVGIHSASNFTNTNNYFTSVPKNFMELLTNQEAQQWVSGWRLNADSVLWGGHKVFMVKPEEPFQPVKEATQL [K120A] | 0.0463 | – | – | 0.0702 | 0.0581 | 0.0526 | 0.0741 | – | – | 0.0511 | 0.0648 | – | 0.0545 | 0.0668 | 0.0519 | – | – | – | – |
| MGESLFKGPRDYNPISSSICHLTNESDGHTTSLYGIGFGPFIITNKHLFRRNNGTLVVQSLHGVFKVKDTTTLQQHLVDGRDMIIIRMPKDFPPFPQKLKFREPQREERICLVTTNFQTNSMSSMVSDTSCTFPSGDGIFWKHWIQTKDGQCGSPLVSTRDGFIVGIHSASNFTNTNNYFTSVPKNFMELLTNQEAQQWVSGWRLNADSVLWGGHKVFMVKPEEPFQPVKEATQL [K120N] | 0.0575 | – | 0.0665 | 0.0914 | – | 0.0661 | 0.0715 | – | – | – | 0.0553 | 0.0584 | 0.0593 | 0.0474 | – | 0.0626 | 0.071 | – | – |
| MGESLFKGPRDYNPISSSICHLTNESDGHTTSLYGIGFGPFIITNKHLFRRNNGTLVVQSLHGVFKVKDTTTLQQHLVDGRDMIIIRMPKDFPPFPQKLKFREPQREERICLVTTNLQTKSMSSMVSDTSCTFPSGDGIFWKHWIQTKDGQCGSPLVSTRDGFIVGIHSASNFTNTNNYFTSVPKNFMELLTNQEAQQWVSGWRLNADSVLWGGHKVFMVKPEEPFQPVKEATQL [F117L] | 0.0634 | – | 0.0693 | – | – | 0.0675 | – | – | – | 0.068 | 0.0536 | 0.053 | – | – | 0.0613 | 0.0585 | – | 0.0491 | – |
| MGESLFKGPRDYNPISSSICHLTNESDGHTTSLYGIGFGPFIITNKHLFRRNNGTLVVQSLHGVFKVKDTTTLQQHLVDGRDMIIIRMPKDFPPFPQKLKFREPQREERICLVTTNFQFKSMSSMVSDTSCTFPSGDGIFWKHWIQTKDGQCGSPLVSTRDGFIVGIHSASNFTNTNNYFTSVPKNFMELLTNQEAQQWVSGWRLNADSVLWGGHKVFMVKPEEPFQPVKEATQL [T119F] | 0.0511 | 0.0514 | – | – | – | 0.0621 | – | – | 0.0633 | 0.0665 | – | – | 0.0727 | – | – | 0.0644 | – | – | 0.0562 |
| MGESLFKGPRDYNPISSSICHLTNESDGHTTSLYGIGFGPFIITNKHLFRRNNGTLVVQSLHGVFKVKDTTTLQQHLVDGRDMIIIRMPKDFPPFPQKLKFREPQREERICLVTTNFQTKSMSSDVSDTSCTFPSGDGIFWKHWIQTKDGQCGSPLVSTRDGFIVGIHSASNFTNTNNYFTSVPKNFMELLTNQEAQQWVSGWRLNADSVLWGGHKVFMVKPEEPFQPVKEATQL [M125D] | 0.0606 | 0.0667 | 0.0665 | 0.0742 | 0.0595 | 0.0567 | 0.0572 | 0.0581 | 0.0713 | 0.023 | 0.0678 | 0.0519 | 0.0599 | 0.0568 | 0.0499 | 0.0409 | 0.0657 | 0.0735 | – |
| MGESLFKGPRDYNPISSSICHLTNESDGHTTSLYGIGFGPFIITNKHLFRRNNGTLVVQSLHGVFKVKDTTTLQQHLVDGRDMIIIRMPKDFPPFPQKLKFREPQREERICLVTTCFQTKSMSSMVSDTSCTFPSGDGIFWKHWIQTKDGQCGSPLVSTRDGFIVGIHSASNFTNTNNYFTSVPKNFMELLTNQEAQQWVSGWRLNADSVLWGGHKVFMVKPEEPFQPVKEATQL [N116C] | 0.0612 | 0.0618 | 0.0571 | – | 0.0351 | 0.0642 | – | – | – | 0.0444 | – | – | 0.0529 | 0.0609 | – | – | – | 0.053 | 0.0675 |
| MGESLFKGPRDYNPISSSICHLTNESDGHTTSLYGIGFGPFIITNKHLFRRNNGTLVVQSLHGVFKVKDTTTLQQHLVDGRDMIIIRMPKDFPPFPQKLKFREPQREERICLVTTNFQTKQMSSMVSDTSCTFPSGDGIFWKHWIQTKDGQCGSPLVSTRDGFIVGIHSASNFTNTNNYFTSVPKNFMELLTNQEAQQWVSGWRLNADSVLWGGHKVFMVKPEEPFQPVKEATQL [S121Q] | 0.0534 | 0.0554 | 0.0748 | 0.0649 | 0.0657 | 0.0647 | 0.065 | 0.0537 | 0.0783 | 0.0597 | 0.0544 | 0.0527 | 0.0683 | 0.0573 | 0.0543 | 0.0734 | 0.0607 | – | 0.0682 |
| MGESLFKGPRDYNPISSSICHLTNESDGHTTSLYGIGFGPFIITNKHLFRRNNGTLVVQSLHGVFKVKDTTTLQQHLVDGRDMIIIRMPKDFPPFPQKLKFREPQREERICLVTTNFQTKTMSSMVSDTSCTFPSGDGIFWKHWIQTKDGQCGSPLVSTRDGFIVGIHSASNFTNTNNYFTSVPKNFMELLTNQEAQQWVSGWRLNADSVLWGGHKVFMVKPEEPFQPVKEATQL [S121T] | 0.0477 | – | 0.0902 | – | – | 0.066 | – | – | – | 0.0613 | – | – | – | – | – | – | – | – | – |
| MGESLFKGPRDYNPISSSICHLTNESDGHTTSLYGIGFGPFIITNKHLFRRNNGTLVVQSLHGVFKVKDTTTLQQHLVDGRDMIIIRMPKDFPPFPQKLKFREPQREERICLVTTNFQTKSMSKMVSDTSCTFPSGDGIFWKHWIQTKDGQCGSPLVSTRDGFIVGIHSASNFTNTNNYFTSVPKNFMELLTNQEAQQWVSGWRLNADSVLWGGHKVFMVKPEEPFQPVKEATQL [S124K] | 0.0628 | 0.0468 | 0.0624 | 0.0546 | – | 0.056 | 0.0524 | 0.0629 | 0.0637 | 0.0591 | – | 0.0641 | 0.0609 | 0.0567 | 0.0531 | 0.0627 | 0.0498 | 0.0511 | – |
